In PubChem BioAssay AID588855 (National Center for Advancing Translational Sciences (NCATS), 2011):
Where “and” joins values, the source holds several entries; their conditions need not be identical. Equal entries are not always repeated. In all, about 410,000 compounds went through this assay and about 5,000 (1.2%) were called active. Inconclusive means that the source gave no clear call. Such entries were picked first, then a sample of the others. Calls come from the whole dose curve; as a rule, active = well fitted inhibition curve with a large enough effect; inconclusive = small, poorly fitted or top-dose-only effect; inactive = no such curve, though single readings can be large or run the other way. Potencies of inconclusive entries are doubtful fits and often do not repeat.

Test: qHTS for Inhibitors of TGF-b; note: nearly all actives have a fitted effect of over 65% in size
Conditions: HepG2 CAGA-GFP TGF-b/SMAD3 reporter, GFP fluorescence, 18 h, TGF-beta stimulated, 500 pg/mL final; series mostly up to 46.1 µM
How it was run: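 Inhibition of TGF-beta-driven CAGA-GFP reporter expression in HEPG2 cells is measured by cellular GFP fluorescence after 18 h stimulation with 500 pg/mL recombinant TGF-beta in 1% FBS medium at 37 degrees C.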
Potency is the fitted concentration of half-maximal effect; tags give direction and shape of the fitted curve.

Structure (SMILES) | Potency
CCNC(=O)CC1C(=O)N(c2ccc(F)cc2)C(=S)N1CCc1ccncc1 (stereo not given) | inactive
Cc1ccc(O)c(CN(C)Cc2cc(C)ccc2O)c1 | inconclusive: 22.4 µM [inhibitor, single point]
O=C(Cn1c2ncccc2c(=O)n1-c1ccccc1)Nc1cccc(C(F)(F)F)c1 | inconclusive: 15.8 µM [inhibitor, partial curve, poor fit]
O=C(CSc1nc2ccccc2c2nc(-c3ccccc3)nn12)Nc1ccc(F)cc1 | inactive
c1csc(C2Nc3ccccc3-c3nc4ccccc4n32)c1 (stereo not given) | inactive
CN(CC(=O)O)c1ccc(S(=O)(=O)N2CCOCC2)cc1[N+](=O)[O-] | inconclusive: 7.94 µM [inhibitor, partial curve]
O=S(=O)(c1cccc2ccccc12)N1CCC2CC1c1cc(-c3ccc4c(c3)OCO4)ccc12 (stereo not given) | inconclusive: 15.8 µM [inhibitor, single point]
CCOC(=O)C1CCN(C2=C(NS(=O)(=O)c3ccc(Cl)cc3)C(=O)c3ccccc3C2=O)CC1 | inconclusive: 22.4 µM [inhibitor, single point]
Cc1c(C(=O)NCc2ccc([N+](=O)[O-])cc2)sc(=O)n1Cc1ccc(-c2ccccc2)cc1 | inconclusive: 10 µM [inhibitor, partial curve]
COc1ccc(NC(=O)CN2CCN(c3nc(-c4ccc(F)cc4)cs3)CC2)c(OC)c1 | inconclusive: 22.4 µM [inhibitor, single point]
CNC(=O)[C@H]1O[C@@H](n2cnc3c(NCc4cccc(I)c4)nc(Cl)nc32)[C@H](O)[C@@H]1O | inactive
O=C(O)C1=CC[C@@H](c2ccc(Cl)cc2)N(S(=O)(=O)c2ccc(Cl)cc2)[C@H]1c1ccc(F)cc1 | inconclusive: 15.8 µM [inhibitor, single point]
COc1cc(Br)cc(C=Nc2cccc(C(F)(F)F)c2)c1O | inconclusive: 35.5 µM [inhibitor, single point]
COc1ccc(CCNC(=O)c2oc3ccccc3c2C)cc1 | inactive
CN(CCOc1ccc(Cl)cc1)CC(=O)Nc1ccc(OC(F)F)cc1 | inconclusive: 35.5 µM [inhibitor, single point]
COc1ccccc1CNC(=O)CNCCc1ccc(OC)c(OC)c1 | inactive
Cc1ccc2oc(C(=O)NCC(c3ccco3)N(C)C)c(C)c2c1 (stereo not given) | inactive
NC(Cc1ccc(C(F)(F)F)cc1)c1csc(NC(=O)NCCc2ccccc2)n1 (stereo not given) | active: 14.1 µM
CCOc1ccc(-c2nc(CSCC(=O)NCCc3ccccc3)c(C)o2)cc1 | inconclusive: 25.1 µM [inhibitor, single point]
O=C(CC(n1cncn1)C(Cl)(Cl)Cl)c1ccc([N+](=O)[O-])cc1 (stereo not given) | inconclusive: 35.5 µM [inhibitor, single point]
CCCCCC(=O)NC(=S)NC1C2CC3CC(C2)CC1C3 (stereo not given) | inconclusive: 35.5 µM [inhibitor, single point]
CCN(CC)S(=O)(=O)c1ccc(/C=C/C(=O)OCC(=O)N(C(C)C)C(C)C)cc1 | inactive

Structure (SMILES) | Potency
CCOc1ccccc1C1C(C(=O)OC)=C(N)OC2=C1C(=O)CCC2 (stereo not given) | inactive
Cc1ccc(C)c(OCCCC(=O)NC2CCCCC2)c1 | inconclusive: 0.631 µM [inhibitor, full curve, poor fit]
CC[C@]12c3[nH]c4cc(-c5ccco5)ccc4c3CCN1C(=O)[C@@H](CC(=O)NC(C)(C)C)C[C@@H]2C(=O)N1CCN(C(=O)C2CC2)CC1 | inconclusive: 7.08 µM [inhibitor, partial curve, poor fit]
Cc1ccc(C)c(Nc2nn3c(=O)c4ccc(C(=O)N(C)Cc5ccccc5)cc4nc3s2)c1 | inconclusive: 8.91 µM [inhibitor, partial curve]
O=C(c1cccc(F)c1)N1CCN(C(=O)c2nn3cccnc3c2Cl)CC1 | inconclusive: 6.31 µM [inhibitor, partial curve, poor fit]
COc1ccc2c(c1)c(=O)oc1cc(OC(C(=O)O)c3ccccc3)ccc12 (stereo not given) | inconclusive: 35.5 µM [inhibitor, single point]
CCOc1ccc2oc(=O)cc(CN3CCN(C(=O)c4cccc(Cl)c4)CC3)c2c1 | inconclusive: 11.2 µM [inhibitor, partial curve]
COc1ccc(C(=O)CC(=O)C(=O)Nc2ccc(C)c(Cl)c2)cc1 | inactive
CCOc1ccc(NC(=S)NN2CCN(C)CC2)cc1 | inconclusive: 28.2 µM [inhibitor, single point]
COc1ccccc1C1CC(c2c(-c3ccccc3)c3cc(Cl)ccc3[nH]c2=O)=NN1S(C)(=O)=O (stereo not given) | inconclusive: 35.5 µM [inhibitor, single point]
C=C(c1nc2ccccc2s1)C1Cc2cccc3c2N(CCC3)C1 (stereo not given) | active: 3.98 µM
C=CCN(C(=O)c1ccccc1)c1ccc(OC)cc1 | inactive
CC(NC(=O)/C=C/c1ccco1)c1nc2ccccc2n1Cc1cccc(Cl)c1 (stereo not given) | inconclusive: 35.5 µM [inhibitor, single point]
C#CCCC(=O)c1ccccc1/C=[N+](\[O-])c1ccccc1 | inactive
COc1ccc(CNC(=O)c2ccc(NC(=O)N3CCSc4ncccc43)cc2)c(OC)c1 | inactive
CCN(CC)CCC(c1ccc2c(c1)OCO2)c1c(OC)cc(OC)c2c(-c3ccccc3)cc(=O)oc12 (stereo not given) | inconclusive: 12.6 µM [inhibitor, partial curve, poor fit] and inconclusive: 35.5 µM [inhibitor, single point]
Cc1ccc2nc3n(c(=O)c2c1)-c1cc2ccccc2cc1C(=O)NC3Cc1ccc(O)cc1 (stereo not given) | inconclusive: 11.2 µM [inhibitor, partial curve, poor fit]
Cc1sc(NC(=O)c2ccco2)c(C(=O)c2ccc(Cl)cc2)c1C | inconclusive: 35.5 µM [inhibitor, single point]
COc1ccc(-n2nc(C(=O)NCC(=O)N3CCCC(C)C3)c3ccccc3c2=O)cc1 (stereo not given) | inactive
O=c1c2ccccc2nc(-c2ccc([N+](=O)[O-])cc2)n1O | inactive
CCOc1ccc(CNC(=S)N/N=C/c2ccc(OC)c(OC)c2)cc1 | inconclusive: 35.5 µM [inhibitor, single point]
COc1ccc(N2CCN(C(=O)CCc3ccc(S(=O)(=O)NCC(C)C)cc3)CC2)cc1 | inactive

Structure (SMILES) | Potency
O=C(Nc1ccncc1)c1ccccc1-c1ccccc1 | inconclusive: 31.6 µM [inhibitor, single point]
Cc1cccc(NC(=O)C2CCCN(S(=O)(=O)c3cccc4nsnc34)C2)c1 (stereo not given) | inconclusive: 35.5 µM [inhibitor, single point]
Cc1cccc(C(=O)Nc2ccc3nc(SCC(=O)N4CCc5ccccc54)sc3c2)c1 | inconclusive: 5.62 µM [inhibitor, single point]
COc1ccc(NC(=O)c2ncoc2-c2ccco2)cc1Cl | inactive
COc1ccc(C(=O)NCCNc2nc3ccc(C)cc3cc2C#N)cc1OC | inconclusive: 2 µM [inhibitor, full curve, poor fit]
N=C1S/C(=C\c2ccco2)C(=O)N1c1nccs1 | inconclusive: 6.31 µM [inhibitor, full curve]
CCC1Nc2ncnc(N3CCCCC3)c2N(Cc2ccc(Cl)cc2)C1=O (stereo not given) | inconclusive: 22.4 µM [inhibitor, single point]
O=C(NCc1ccncc1)C1CCN(S(=O)(=O)Cc2ccccc2)CC1 | inactive
CN1C(=S)N(c2cccnc2)C(=O)/C1=C\c1ccc(C(C)(C)C)cc1 | active: 22.4 µM
CN(C)C(=O)/C(=C\c1ccc(-c2cccc([N+](=O)[O-])c2)o1)NC(=O)c1ccccc1 | inconclusive: 35.5 µM [inhibitor, single point]
CCOC(=O)c1cccc(NC(=O)C2CCN(S(=O)(=O)c3c(C)noc3/C=C/c3ccc(C)cc3)CC2)c1 | inconclusive: 12.6 µM [inhibitor, partial curve, poor fit]
C=CC1CN(C(=O)OCC(Cl)(Cl)Cl)C2CC3c4ccc(OC)cc4NC3C3CC1C2CO3 (stereo not given) | inconclusive: 22.4 µM [inhibitor, single point]
CCOc1ccc(/C=N/NC(=S)NC2CC3CCC2C3)cc1 (stereo not given) | inactive
COc1cc(-c2nc(-c3ccc4c(c3)-c3ccccc3S4(=O)=O)c(-c3ccccc3)[nH]2)cc(OC)c1OC | inconclusive: 5.62 µM [inhibitor, single point]
CCOC(=O)[C@@H]1CSCCS(=O)(=O)N1Cc1ccccc1Br | inconclusive: 35.5 µM [inhibitor, partial curve, poor fit]
CC1(NC(=O)c2ccccc2)CCN(CCCc2ccccc2)C1=O (stereo not given) | inactive
Cc1ccc(S(=O)(=O)N2CCCCC2)cc1NC(=O)Cn1ncc(Cl)c(Cl)c1=O | inconclusive: 25.1 µM [inhibitor, single point]
COc1ccc(C2C(C#N)=C(N)OC3=C2C(=O)CCC3)cc1Cn1nc(C)c([N+](=O)[O-])c1C (stereo not given) | inconclusive: 35.5 µM [inhibitor, single point]
Cc1ccc(NC(=O)Nc2nc3ccc(S(C)(=O)=O)cc3s2)cc1 | inconclusive: 3.55 µM [inhibitor, partial curve, poor fit]
N#Cc1nc(COc2ccc(-c3ccccc3)cc2)oc1NCc1cccnc1 | inconclusive: 35.5 µM [inhibitor, single point]
CC1=NN(Cc2ccccc2)C(=O)C1C(c1ccncc1)C(C#N)C#N (stereo not given) | inconclusive: 2.51 µM [inhibitor, full curve]
